The full ranking holds about 16,000 sequences; the median of “Z-score” is about -0.37, and the highest 2% start at about 3.2. The list shows a part of the results.
Test system: RBM10 RRM1-ZnF (GST-tagged construct)
Assay: RNAcompete 7-mer binding Z-score; higher = stronger binding preference
Method in brief: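 GST-tagged RBM10 constructs (20 pmol) and a designed pool of 241 399 RNAs up to 41 nt (1.5 nmol) were allowed to bind for 30 min at 4°C in 1 ml Hepes pH 7.8 buffer with glutathione Sepharose beads. After four 2-min washes at 4°C, bound RNA was identified by microarray hybridisation. Enrichment was scored per heptamer motif as a one-sided Z-score across the probes containing it.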

Sequence | RNAcompete 7-mer binding Z-score
CAUAGGA | 0.54
CAUAUUA | -0.642
GGAGAUU | 0.914
GAGGCAU | 0.582
ACGAGUA | 0.153
UGAGGAG | 1.86
GUCUCAA | -0.425
CCAGAGC | -0.383
UAGUCAA | -0.383
GUUAUCC | -0.61
GGAAAUA | 1.1
UUUCCCC | -0.659
GUAUUAG | 0.566
AGUAUUC | -0.493
AUUCAGA | -0.402
UCAUUCG | -0.75
UUACGUG | -0.178
AGGGCAU | 1.33
UGGAGGG | 4.07
ACUGUGA | -0.24
UUUUAUU | -0.678
UUGUGUU | -0.285
GGAUAAC | 1.02
AAAUGGU | 2.86
GCUUGAA | -0.36

Sequence | RNAcompete 7-mer binding Z-score
GUGACAU | -0.0869
AAAAGUC | -0.376
GAAGACU | -0.0187
UCGUCCU | -0.688
UACCUGG | -0.487
UUCCCAG | -0.415
ACAAAAC | -0.454
UUCUGUG | -0.415
CCCAGUG | -0.295
UCGCUCG | -0.49
UAGAGGA | 1.69
AUCGUUA | -0.487
CGCAACA | -0.597
UUUGAAC | -0.636
UUCAUCG | -0.681
ACCUGAC | -0.779
CUUUUGU | -0.824
GGCGUCA | 0.29
AUCUCGG | -0.493
GCUGUCU | -0.772
UGGCCAU | -0.324
CUUUGCU | -0.899
CCAGGUC | -0.402
AUCAACA | -0.522
GGGUAUA | 2.67

Sequence | RNAcompete 7-mer binding Z-score
UCAAAAU | -0.591
GUGACGU | 0.417
CGCAACG | -0.324
GCUUCCC | -0.665
UGAAGCA | 0.105
AGUACAC | -0.412
UUACUCC | -0.772
AACAGUC | -0.6
AAACUCU | -0.841
UCAUAUC | -0.678
CGAAAGG | 2.19
AAUCCCG | -0.821
UAUGAAA | -0.357
GACUCAA | -0.594
AGGUGGG | 3.76
GACCUAA | -0.828
CCGGGGG | 1.54
GUUAACA | 0.017
GACAUAC | -0.243
UCCCUGG | -0.24
UGCCGUC | -0.6
CUACGGC | -0.288
GUAUCCA | -0.402
GACCUGC | -0.854
CCGCGGG | 0.732

Sequence | RNAcompete 7-mer binding Z-score
GGAGGGA | 4.01
AUUACAU | -0.516
UUGGGCU | 1.43
GGAAGUU | 1.14
CCACCCC | -0.305
ACCACAA | -0.72
AAGAUGC | -0.00246
AUUGAUA | -0.11
GCACGGA | 0.933
GGUCCUA | -0.425
UCGGUUG | 0.693
UUCCGCA | -0.824
ACCUCAU | -0.733
UCAUUAA | -0.509
AGCAGGC | 0.537
CAGAAGA | -0.0187
GUACAGC | -0.0414
GGUAAUG | 2.97
UUAAUGC | -0.623
CAAAAAA | -0.448
CGCAGAA | 0.00404
UCUGAUC | -0.74
ACAAGCU | -0.746
UCGGUCA | -0.347
CGCCUCG | -0.522

Sequence | RNAcompete 7-mer binding Z-score
CGCUUCG | -0.724
GUAAGGA | 2.67
GCGAUGG | 2.03
CGAUUCU | -0.746
CACUGAU | -0.477
AGCUCUA | -0.629
UUGGCGG | 1.51
UGCUAGU | -0.418
AAGAGUG | 1.46
CCCCGAA | -0.49
UAAUCUC | -0.847
UUUUCGG | -0.214
UUGGAGA | 1.21
GCUAAUG | 0.017
UGGAUAC | 1.66
AUUCGUU | -0.62
GUGCGGC | 0.897
UCCCAAG | -0.607
AUUUGCC | -0.867
GCGCUUC | -0.516
UCCGGCC | -0.811
GUUACCG | -0.0999
CCGGUAA | -0.0642
CCACCGG | -0.113
AAUUGGG | 2.54

Sequence | RNAcompete 7-mer binding Z-score
UAGUGAA | 0.563
UGCGUUC | -0.633
GUAGCCC | -0.282
UACACUC | -0.548
ACGACUG | -0.136
AGGACUG | 0.521
AUCUUGG | -0.227
UCGGAGU | 0.131
GUUCAUU | -0.47
GAGUACU | -0.246
UGGUUUU | 1.08
UUGCCAG | -0.5
CGCCCAG | -0.451
GAGCUUC | -0.681
UCCCGCG | -0.591
CCCUCGG | -0.0967
AGCCCGU | -0.779
GAACAAA | -0.233
AUAUGGA | 1.85
CCCGAGA | -0.516
CAGGAGA | 1.93
GCACUUG | -0.227
ACCAAAG | -0.37
AUGUGAC | 0.0463
CGUAAGA | -0.542

Sequence | RNAcompete 7-mer binding Z-score
CUCGAUG | -0.402
GAGGCCA | -0.0577
CACGCGU | -0.318
AUUCGCU | -0.805
GGCUACC | -0.188
CUACAAA | -0.516
GAACCGC | -0.574
CAGCUUA | -0.707
UGAUGAA | 0.423
CCCACAC | -0.548
GUUCUAG | -0.23
CUGGUCU | -0.347
CUUAAGC | -0.841
GGCGAUU | 0.131
CUGUGAC | -0.428
GCAUAGG | 1.8
UUGGUUA | 0.615
UCCUGUU | -0.815
CCUAGUG | -0.266
AAGCCAC | -0.522
CCUUGUC | -0.756
UGCUCGC | -0.493
GAGAUUC | -0.311
GCCGCAU | -0.642
AUCAUCA | -0.5

Sequence | RNAcompete 7-mer binding Z-score
AGUGGGC | 2.67
CCGAAUU | -0.815
UGGGAAG | 4.03
AUUGCGC | -0.578
CGUCAAU | -0.73
GUGAUUA | 0.352
CUACAGA | -0.636
AGUGUGG | 2.95
CACACCC | -0.5
UUCUAUU | -0.737
CGGAAUG | 1.27
GUGGCUG | 1.05
UCGAGUC | -0.513
UCCUGGG | 0.498
UCUGUCC | -0.795
UCCGUUC | -0.694
CCAGUUG | -0.513
GAAGGGA | 4.52
AGUGGGU | 3.49
GGUUGAC | 1.2
CCUACAA | -0.724
AAGCUCC | -0.646
CUAUAGA | -0.496
CGUGCUG | -0.149
UCCUUAA | -0.815

Sequence | RNAcompete 7-mer binding Z-score
AGGCUAG | 0.527
AGCUGAU | -0.0642
UAAUAGU | -0.256
UCGUUAA | -0.629
GCAAUUC | -0.62
UACCGCU | -0.782
GAUGGUA | 2.28
GUGGGUC | 2.36
UUACGAA | -0.561
UACAGGC | 0.173
AGGCAUG | 0.774
UAAAAUC | -0.678
GGUGAUG | 2.87
UUUCUUG | -0.707
UCCUAGC | -0.753
CAAGAUA | -0.578
GACAGCA | -0.00896
CGUGGAC | 1.09
AACUAGC | -0.477
AUUUUUG | -0.604
GAACUUG | -0.275
GAGGAAA | 2.27
UUCUCAC | -0.769
CCCGCUU | -0.659
CGAUUGA | -0.233

Sequence | RNAcompete 7-mer binding Z-score
AUUUAUU | -0.698
CUGGACU | -0.383
AAACCUA | -0.746
ACAGAUU | -0.363
UCGCAAA | -0.698
AUUGAAG | 0.222
AUUUUUC | -0.818
GAUGAAU | 0.803
CUCCCUU | -0.753
AGACGUA | -0.207
AAUACUA | -0.626
UCCAGGA | 0.192
UUAGUAC | -0.477
GACUUGC | -0.821
AGCAGUU | -0.227
GGUCAUU | -0.136
AUGAUUU | -0.681
AUCUACC | -0.824
GGAUCUA | -0.0382
AGUCGCC | -0.36
UCACAAC | -0.568
GCGGAGU | 1.4
CUAUACA | -0.571
ACCAGUA | -0.542
UGCUAGC | -0.431

Sequence | RNAcompete 7-mer binding Z-score
GUAUGAC | 0.283
AGGAUUA | 0.735
AAGGGAA | 4.37
CAGAAAA | -0.197
AAGGGGC | 3.13
GACCCCU | -0.704
GCUUCAA | -0.529
CCCGCUG | -0.295
GACAUGC | -0.353
GGAGGCU | 1.41
CCUCUGG | -0.305
UCAGGUU | 0.41
AUGGGUU | 2.89
ACAGGGC | 1.84
GGGCAAA | 1.62
GAUCCAC | -0.704
AGCUCCA | -0.545
GCGAGAA | 0.413
CGUCCUC | -0.694
CCCAACA | -0.496
UGUCAAC | -0.552
ACUCGAA | -0.539
CCGCUGC | -0.22
GCACGCG | 0.313
GCCGUUG | -0.305

Sequence | RNAcompete 7-mer binding Z-score
CGCCAUG | -0.35
CUAAGUC | -0.613
UCCCUAU | -0.743
AGAUGAC | -0.0902
CGUGAAC | -0.301
CCUCUUU | -0.974
GCGAUAG | 0.608
AACAACC | -0.72
GUCCCUG | -0.464
CAGUAUG | 0.235
AUCUCUG | -0.857
GGAGUUG | 2.64
AACGUCU | -0.581
UCGUUCA | -0.565
UGUAACU | -0.331
GUAGUGC | 0.495
CGGGCAA | 0.755
CCUGGUA | -0.561
AGUUACC | -0.327
GCCGCUU | -0.867
AGAAAGC | -0.0155
GGCGUUU | 0.179
CCACCUG | -0.49
CGGAUAG | 1.46
UACUUCA | -0.61

Sequence | RNAcompete 7-mer binding Z-score
AUACCUU | -0.886
UGCCUUC | -0.701
CAGGUCC | -0.357
CGAUUUC | -0.87
GGGGCCC | 0.634
UCCAGUG | -0.396
GGCAUAC | 0.153
UAAUCCU | -0.805
UGCCGCA | -0.477
ACGAAUG | 0.355
CUGAGGC | -0.0155
CUCCCGU | -0.604
GGGUAGA | 3.74
GAUCUUC | -0.769
AAUAAGA | 0.115
UCAAUGA | -0.318
GCCAGCG | -0.0544
GUAUGAA | 0.384
AAGGAUG | 4.14
GAUCCGC | -0.772
GCCACUG | -0.327
AAUACCA | -0.655
ACCUUUC | -0.945
GCGCAAC | -0.35
ACCAGGG | 1.48

Sequence | RNAcompete 7-mer binding Z-score
GCUCCAC | -0.519
GACCGAA | -0.727
CCAGCAU | -0.659
CCGCUAC | -0.685
UUGAGGA | 1.14
CCACCGA | -0.295
AACUAAC | -0.633
AGACGGA | 0.949
UACCACU | -0.558
CAGUAUC | -0.548
CUUUGCA | -0.932
GAAAGCU | 0.14
UAUGCGG | 0.43
CCUUGAA | -0.746
GCCAACA | -0.288
CGCCUGU | -0.795
UAUUUGC | -0.818
CUGCUAU | -0.691
UUGAACG | -0.139
AAACGGC | -0.0544
ACUCGGC | -0.62
CGACUUC | -0.785
CAAUGAU | -0.376
CCCUCCA | -0.828
AAGUUCG | -0.379

Sequence | RNAcompete 7-mer binding Z-score
AGACAGA | -0.0999
UAAGGUC | 0.547
AGGUUUU | 0.54
UUUUAGC | -0.672
UCUAGAU | -0.532
UUAAGUG | 0.205
CUACAAU | -0.698
AUGGGGU | 3.92
ACCUGCG | -0.591
UUACCUC | -0.724
GAUUAUG | 0.287
CGGGCGG | 2.65
CUUCCCG | -0.776
AGUUCUG | -0.509
ACGGUUG | 1.78
CCUGAAA | -0.72
CCAAAAU | -0.854

Reference: the supplement of paper PMC5499739
